Measurements published in PubChem BioAssay AID686979 (National Center for Advancing Translational Sciences (NCATS), 2013).
Hit rate of the full screen: of about 420,000 compounds, about 50,000 (12%) were called active. The inconclusive results got no clear call from the source; some entries with a clear call stand among them for comparison. The call rests on the fitted dose curve; in most records, active means well fitted inhibition curve with a large enough effect; inconclusive means small, poorly fitted or top-dose-only effect; inactive means flat fitted curve, though single readings scatter. No potency is given beside an inconclusive call; the fits are too rough.

experiment: qHTS for Inhibitors of human tyrosyl-DNA phosphodiesterase 1 (TDP1): qHTS in cells in presence of CPT; settings: chicken DT40 Tdp1-/-;hTDP1 cells + 20 nM CPT, ATP luminescence, 48 h; series mostly up to 46.2 µM; further: nearly all actives have a fitted effect of over 55% in size
Procedure, shortened: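 Chicken DT40 Tdp1-/- cells complemented with human TDP1, 400 cells/well, exposed to compounds plus 20 nM camptothecin for at least 48 h at 37 C; viability read as ATP content by CellTiter-Glo luminescence.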
Potency means the concentration at half of the fitted maximal effect; tags describe the fitted curve by direction and shape.

Row | Compound | Potency
1 | Cc1ccc(C(=O)O)cc1N1C(=O)c2cccc3cc(Br)cc(c23)C1=O | inconclusive [inhibitor, partial curve]
2 | Cc1ccc(NC(=O)Cn2cc(S(=O)(=O)c3ccc(F)cc3)c(=O)c3cc4c(cc32)OCO4)cc1 | inconclusive [inhibitor, single point]
3 | Cc1ccc(NC(=O)CSc2nccn2C2CCCC2)cc1 | inconclusive [inhibitor, single point]
4 | CCCc1ccc(Oc2cc(NN3CCCCC3)c([N+](=O)[O-])cc2[N+](=O)[O-])cc1 | inactive
5 | COc1nc(N)nc(NC(=O)c2cccs2)c1N=O | active: 2.06 µM
6 | O=C(CN1CCN(Cc2ccc(F)cc2)CC1)Nc1nc2ccccc2s1 | inactive
7 | CC1=C(C(=O)Nc2ccccc2)C(c2ccncc2)n2nnnc2N1 (stereo unspecified) | inactive
8 | OC(c1ccc(F)cc1)c1nc(-c2ccc(F)c(Cl)c2)cs1 (stereo unspecified) | inconclusive [inhibitor, single point]
9 | O=c1oc2cc(OCc3c(F)cccc3Cl)ccc2cc1-c1ccccn1 | inconclusive [inhibitor, single point]
10 | Cc1cccc(NC(=O)CCS(=O)(=O)c2ccc3c(c2)NC(=O)CS3)n1 | inconclusive [inhibitor, single point]
11 | COc1ccccc1NC(=O)CN1CCC(C(=O)c2ccc(F)cc2)CC1 | inconclusive [inhibitor, single point]
12 | Cc1ccccc1-c1cc2nc(NCCN3CCNC3=O)n(C)c(=O)c2s1 | inconclusive [inhibitor, partial curve, poor fit]
13 | CC(C)c1c(C(=O)N/N=C/c2cccc(OCc3ccc(F)cc3)c2)nnn1-c1nonc1N | inconclusive [inhibitor, single point]
14 | CSc1cccc(NC(=O)NCc2cccc(CNC(=O)Nc3cccc(SC)c3)c2)c1 | inconclusive [inhibitor, single point]
15 | CCOC(=O)c1cnc(Nc2nc3ccccc3o2)nc1CSC(=S)N1CCCCC1 | active: 0.146 µM
16 | Cc1cccc(OCC(=O)NC(=S)Nc2ccccc2N2CCOCC2)c1 | inconclusive [inhibitor, single point]
17 | O=C(/C=C/c1ccc2c(c1)OCO2)NCCSCc1cccc(Cl)c1 | inactive
18 | O=C(Nn1cnnc1)c1ccc([N+](=O)[O-])cc1 | inactive
19 | O=C(Nc1ccc(N2CCOCC2)c(Cl)c1)c1ccc(-n2cnnc2)cc1Cl | inconclusive [inhibitor, partial curve, poor fit]
20 | COc1ccc(OC)c(NC(=O)c2ccc(-c3nc(CSc4ccccc4)c(C)o3)cc2)c1 | active: 20.6 µM
21 | CN1C(C(=O)NCCc2cccs2)CC2Cn3c(nc4cc5ccccc5cc43)C21 (stereo unspecified) | inactive
22 | CC1(C(=O)NS(=O)(=O)c2cccc(F)c2)CCN1C(=O)c1ccccc1 (stereo unspecified) | inactive
23 | CCc1nc2ccc(C(=O)NCCCn3ccnc3)cn2c1N(C)C(=O)c1cccc(OC)c1 | inactive

Row | Compound | Potency
24 | COc1ccc(CCNC(=O)c2cc(C(=O)c3cc(Cl)ccc3O)cn(CCc3ccc(OC)cc3)c2=O)cc1 | active: 10.3 µM
25 | O=[N+]([O-])c1ccc2[nH]ncc2c1 | inactive
26 | O=C(Nc1cccc(S(=O)(=O)N2CCCCC2)c1)C1COc2ccccc2O1 (stereo unspecified) | inconclusive [inhibitor, single point]
27 | COc1cc(CNCCO)cc(Cl)c1OCc1ccccc1Cl | inconclusive [inhibitor, single point]
28 | Cc1ccc(N=Cc2nc(/C=C/c3cccc([N+](=O)[O-])c3)oc2O)cc1 | inconclusive [inhibitor, partial curve]
29 | Cc1cc(Oc2nc3c(C)cccn3c(=O)c2/C=C(\C#N)S(=O)(=O)c2ccccc2)ccc1Cl | active: 13 µM
30 | COc1ccc(OCCOc2ccc(C)nc2[N+](=O)[O-])cc1 | inactive
31 | CC(C)(C)C(=O)Cn1c(=O)n(CCCCCC(=O)NCc2ccc3c(c2)OCO3)c(=O)c2sccc21 | inconclusive [inhibitor, single point]
32 | O=C1CCC(C(=O)N2CCCCCCC2)CN1Cc1cccc(C(F)(F)F)c1 (stereo unspecified) | inconclusive [inhibitor, single point]
33 | Cc1cc(Cl)c(S(=O)(=O)N2CCN(c3ccc(F)cc3)CC2)cc1OCC(N)=O | inactive
34 | CN(C)CCNc1oc(COc2ccc(-c3ccccc3)cc2)nc1C#N | inconclusive [inhibitor, single point]
35 | O=C(/C=C/c1ccccc1)N1CCC(Cc2ccccc2)CC1 | inconclusive [inhibitor, partial curve]
36 | Cc1ccc(S(=O)(=O)N2[C@H](CC(=O)c3cccc4ccccc34)OC[C@@H]2C)cc1 | inconclusive [inhibitor, single point]
37 | COC(=O)[C@@]1(Cc2ccccc2)[C@H]2C(=O)N(C)C(=O)[C@H]2[C@H]2CN=C(SCC(=O)c3ccccc3)N21 | inactive
38 | COc1ccc(-c2ccc(CN3C(CC(C)C)C(=O)N(Cc4cn(CC5CCCCC5)nn4)CCS3(=O)=O)cc2)cc1 (stereo unspecified) | active: 18.4 µM
39 | CCOC(=O)c1cc(S(=O)(=O)N2CCN(C3CCCCC3)CC2)cn1C | inactive
40 | COc1ccc2cc(C(=O)C3CCCN(Cc4cnc(C)s4)C3)ccc2c1 (stereo unspecified) | active: 23.1 µM
41 | CCc1nc2ccc(C(=O)N3CCN(C(=O)c4ccco4)CC3)cn2c1N(CC)Cc1cccc(Br)c1 | active: 14.6 µM
42 | CCOC(=O)C1CCCN(C(=O)CSc2ccc(Br)cc2)C1 (stereo unspecified) | active: 13 µM
43 | Cc1ccc(CN2CC(C(=O)N3CCN(S(=O)(=O)c4c(F)cccc4F)CC3)CC2=O)cc1 (stereo unspecified) | inactive
44 | CCCCNC(=O)CNC(=S)N(Cc1ccc(C)cc1)Cc1ccco1 | inconclusive [inhibitor, single point]
45 | CN1CCC(C2(O)c3ccccc3CCc3ccccc32)CC1 | active: 18.4 µM
46 | CCCCn1cc(S(=O)(=O)c2ccc(CC)cc2)c(=O)c2cc(F)c(N3CCCC(C)C3)cc21 (stereo unspecified) | active: 23.1 µM
